Laboratory results reported in the supplement of paper PMC11417369.
The other results are listed elsewhere or left out.

The sequences below were run on PfSIP2 AP2 domain 1 (GST-tagged) (assay: gcPBM binding intensity (ln(normalized median fluorescence intensity)); higher = stronger DNA binding).
How it was run: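 After 1 h on an Agilent 4 × 180k array of primer-extended double-stranded 36-bp intergenic genomic probes and negative controls, bound GST-tagged P. falciparum DNA-binding domains were detected with Alexa488 anti-GST antibody and scanned at 488 nm. The domains had been expressed in E. coli, and binding took place in 1× PBS with 1% milk, 0.2 mg/ml BSA, 0.5% salmon testes DNA and 0.03% Triton X-100. Binding intensity is the highest Masliner-normalised natural-log median intensity across replicate spots of either probe orientation.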

Sequence | gcPBM binding intensity (ln)
CAACATTTATATTTTACACACATCATTTAAGCGCTT [CACACA_site992] | 6.94
ATTGTTTTATATAGAACACACATAAAAATCTATATG [CACACA_site6681] | 6.85
TTATTATATAAAATAAATAACAAAAAAAATAAAATA [GTGCAC_negctrl_site548] | 6.92
CCTATCCATACATATACACACATATCTATTTATATA [CACACA_site1669] | 7.15
TTTGAAATAAATAATGCACACTCTACATATATACGT [CACACA_site2244] | 7.93
AAATAAAATACAAGTTGTACTATAAGCTTTTTATAT [XGTACX_site8021] | 6.9
AAAAAAAAAAGACACACACACATATTTATTTATATA [CACACA_site6484] | 6.96
AATATATAAGTGTTGTGTACTAAAGTATTTTCCTAT [XGTACX_site1622] | 7.02
CATATACAGAAACACACACACACATAAATAAATATA [CACACA_site1343] | 7.2
TTTAATTAAATATGTATATATATTCATGTATGTATA [GTGCAC_negctrl_site14] | 7.16
AGTAGATATAAAAGGAGTACACATATATATATAAAT [XGTACX_site4375] | 7.06
TGTTTTTGTGATCATATGAAAAAATTACCTACAAGG [CACACA_negctrl_site279] | 7.2
ATAGTATCTGGTAGCTGTACGAGTCGTATAGTGCAG [XGTACX_site2542] | 8.25
TTTCCGTATAATTTTGCACACGAATATAAATTTGAT [CACACA_site137] | 7.38
ATAGTTTTACACATTTGTACATAATTTACAACAAAA [XGTACX_site25] | 7.31
ATATATATATATTCCACACACACACTAATAAAAAAA [CACACA_site9214] | 8.93
TTTAATCAAATTAAAAGTACAGAATTGTTCATGTAG [XGTACX_site1229] | 7.22
AAAAAATATTATATATGTACATAATATTTTTTTTTT [XGTACX_site5909] | 6.86
TTTTACAATGAAATATGTACTTAAATGTCCAAATTC [XGTACX_site781] | 6.79
TATATAAGAATATATACACACATATATGTATATATA [CACACA_site2178] | 7.23
AAAAAGAAAAATTGCACACACTTATAAAAATATACG [CACACA_site6074] | 7.32
GTTAACAAATAATGCACACAAATGGATAAAATTATA [CACACA_site3725] | 7.68

Sequence | gcPBM binding intensity (ln)
TTAACCATTAATTCTCTACACACTTTTATTTTATTT [CACACA_site8522] | 6.94
TATTATTAATATGTATGGTTGTAATCTGTGTCTCCT [TGCATGCA_negctrl_site190] | 7.12
AATATAATTTTTTATTGTACAAAAAAATTATTTAAT [XGTACX_site3248] | 7.04
AAGAACAAATATGAGGTGCAACACAATATATTATTA [GTGCAC_site9965] | 10.5
AATAAGTATACACATACACACACACCCAAAAAAAAA [CACACA_site8034] | 7.13
CATTTTGTAAGATATGCACACATGGATCATATTTTA [CACACA_site423] | 6.94
TTTTTTTTTATCAAATGTACATATATATAATAATAA [XGTACX_site3941] | 7.39
ATGGGTATTAAGTGTACACATATAGTGTATTTTGTT [CACACA_site4452] | 6.98
GTGTAAATATAATTAGTTTCACAAAACAAATATTTA [CACACA_negctrl_site717] | 6.72
AGGCACAAAATTAAATGTACATATATATATATATAT [XGTACX_site3323] | 9.42
GATTACTAGAAATGCACACACTGATAAAATAAGGAA [CACACA_site6131] | 7.82
TATATATATGAGTATACACACCTGATAAAGGTATAT [CACACA_site5462] | 7.18
TTAAACTTGAAACACACACACACACCGATATAAAAA [CACACA_site4578] | 7.03
ATAAAAATATTGTCTAGTACATATTTATAATAAAAA [XGTACX_site7523] | 6.89
AGAAATATATCTATTTGTCCGTATATTCATATTTAT [XGTACX_site8427] | 6.79
AGATTGGAACATTAAAGTACTTACTTTTTTTTTTTT [XGTACX_site8017] | 6.74
ATTTTTTTTTTTTTTTTTTTTGCACCATAAAATAAT [CACACA_negctrl_site1324] | 11.3
TATATACTCAAACACACACACACATACACAGACATA [CACACA_site5025] | 7.35
ATTTTGACATTATATAGTACATATAATTTACATTTA [XGTACX_site3024] | 7.15
TATATATATATGTGTACACATTTGTCAGATTATATA [CACACA_site4813] | 9.14
ATATATTTAAACAAAAGTACAAATCATAAATTCAAG [XGTACX_site3633] | 6.87
TATATATTCTTTTAATGTACATATTGTATTATATCC [XGTACX_site4501] | 7.14

Sequence | gcPBM binding intensity (ln)
TCTTTATCTTCTTATACACACATTTATTAAAAAAAA [CACACA_site445] | 7.58
TGACATAAAAAATATACACACTATAATATTTATACT [CACACA_site6776] | 6.91
ATTTTTTAAAAAGTAACACACACTCTTATATATAAT [CACACA_site9206] | 7.13
ATAAAACGAAGATGTTGTACGTACAAATAAATGAAT [XGTACX_site2472] | 7.77
ATAACTTTTTAAAAGACACACATAAGAAAAACAAAA [CACACA_site723] | 7.32
TTAATTAATTTTTCAGTGCAAATAAAAAATATTTAA | 7.78
CAAAAGTAAGCACGCACACACAACATGAAATAAACT [CACACA_site6223] | 7.09
TATCTTATAAACTCTGCACACATAATATATTAAATG [CACACA_site8587] | 9.1
TATACGCAGAAACACACACACATACACCCACATACA [CACACA_site1723] | 7.19
AACGTTCATAATTATTGTACCCTCATTTTATTTTTT [XGTACX_site503] | 6.94
AAAAATTTTAATTAGGAACACACATATATATATATA [CACACA_site9016] | 9.37
TATATTAGAAAGGATACACACATATATATATATCTA [CACACA_site570] | 7.02
ATATATATGTATGTATGTACACACAAAAAATGGAAT [XGTACX_site7879] | 7.8
TACAAAATAAATGGAACATGCAAAAAAATTGATTAA [TGCATGCA_site790] | 6.67
AAAAAAAAAAAAAAAACACACATTTTAAGAAAAAAA [CACACA_site2926] | 7.74
ATATGCTATTATATATGTACACACCAATTTATTTAT [XGTACX_site8364] | 7.15
ATATATATATGTTTGTGTACTTATGATATCATATAA [XGTACX_site3276] | 9.09
ATTATATTCTTTACTACCAATTAGTAGAAAATAAAA [CACACA_negctrl_site1096] | 6.97
AATATATATATATATATTTTTGTTAGAATATGGAAT [GTGCAC_negctrl_site434] | 7.21
TTAAAATAGCTAGTTTGTACATAAAATATATTACTT [XGTACX_site202] | 6.8
TAAATAAATAAAAATAGTACATAATTATTATTATTA [XGTACX_site4981] | 6.98
TTTTAAAAAATATAATAATATAAATATGTTTTATAC [CACACA_negctrl_site643] | 7

Sequence | gcPBM binding intensity (ln)
CTTAATAAGAATAAATGTACAAGGGATAAAAAATTT [XGTACX_site3213] | 7.12
ATAGAATATTAATAATTAAAAATAAAATAAAATAAA [CACACA_negctrl_site1810] | 6.87
TATTTAATTATTTGTAGTACGATTAATATTTAATGA [XGTACX_site3553] | 7.05
ACATTCATAAAAAAAAGTACATTTTTTATAAAAGAA [XGTACX_site6197] | 7.32
TATATTTAGAATACAATCTTAAAGTTGAAATAAAAT [CACACA_negctrl_site1292] | 6.84
TTGTTAAATATTTATAAAATGAATTTAAAATGTACT [CACACA_negctrl_site665] | 7.05
AAAAAAAAAACATACACACACACAAATATTTATATA [CACACA_site437] | 6.94
TTTATTATCTTATTCACACACATATATAAATATGTA [CACACA_site7369] | 7.15
AACATAATAAAAAAACGTACATAATTTTATATACAT [XGTACX_site6602] | 6.99
ATATATCCAATATATATATATATATATATATATATA [CACACA_negctrl_site160] | 9.52
ATAATATAGAAACACACACACATATATATATACATT [CACACA_site555] | 6.97
TAGTTTTTATATAGCACACATATTGTGATTATGTAT [CACACA_site1196] | 6.98
TTTATATATAAATATATATATATATATATATATATA [TGCATGCA_negctrl_site121] | 9.22
AAATTATGTGCCAATACACACACACCGATATATATA [CACACA_site8050] | 7.44
TTCTTAGATTGTACAGTACACACCTTTAGAATGTTA [CACACA_site212] | 7.06
AATTCATTTTACCCATGTACACAATTATATTTTATA [XGTACX_site4127] | 7.23
TACTACCACGGACATGCATGCACATTATTACTCTAA [TGCATGCA_site313] | 7.3
AAGAAAAAATGATGAATAGAGATCAAATCTATATAT [TGCATGCA_negctrl_site29] | 6.72
TTTTGTTACTTTTATGTGCACTTATAAAACGAACTA [GTGCAC_site9551] | 10.3
GACTTTTCAATTTTTCGTACGTATAAATTGTATACA [XGTACX_site1488] | 7.24
TTTTTATTGTTGTACTTATATTATTTTATTATTAAA [GTGCAC_negctrl_site200] | 7.31
CTAATATATATCAATTGTACATATTGAATAAGAACA [XGTACX_site4541] | 7.03
